Laboratory results from article PMC4336329 (PLoS ONE, 2015).
Among all 310,000 compounds or so, about 2,200 (0.71%) showed an effect of 50% or more. The effect is printed as a negative number. This is one part of the list.

What follows are molecules tested against human ether-à-go-go-related gene (hERG) potassium channel (human, UniProt Q12809) (assay: primary screen, population patch clamp on CHO cells stably expressing hERG).
human ether-à-go-go-related gene (hERG) potassium channel, sequence (Q12809 whole entry, looked up): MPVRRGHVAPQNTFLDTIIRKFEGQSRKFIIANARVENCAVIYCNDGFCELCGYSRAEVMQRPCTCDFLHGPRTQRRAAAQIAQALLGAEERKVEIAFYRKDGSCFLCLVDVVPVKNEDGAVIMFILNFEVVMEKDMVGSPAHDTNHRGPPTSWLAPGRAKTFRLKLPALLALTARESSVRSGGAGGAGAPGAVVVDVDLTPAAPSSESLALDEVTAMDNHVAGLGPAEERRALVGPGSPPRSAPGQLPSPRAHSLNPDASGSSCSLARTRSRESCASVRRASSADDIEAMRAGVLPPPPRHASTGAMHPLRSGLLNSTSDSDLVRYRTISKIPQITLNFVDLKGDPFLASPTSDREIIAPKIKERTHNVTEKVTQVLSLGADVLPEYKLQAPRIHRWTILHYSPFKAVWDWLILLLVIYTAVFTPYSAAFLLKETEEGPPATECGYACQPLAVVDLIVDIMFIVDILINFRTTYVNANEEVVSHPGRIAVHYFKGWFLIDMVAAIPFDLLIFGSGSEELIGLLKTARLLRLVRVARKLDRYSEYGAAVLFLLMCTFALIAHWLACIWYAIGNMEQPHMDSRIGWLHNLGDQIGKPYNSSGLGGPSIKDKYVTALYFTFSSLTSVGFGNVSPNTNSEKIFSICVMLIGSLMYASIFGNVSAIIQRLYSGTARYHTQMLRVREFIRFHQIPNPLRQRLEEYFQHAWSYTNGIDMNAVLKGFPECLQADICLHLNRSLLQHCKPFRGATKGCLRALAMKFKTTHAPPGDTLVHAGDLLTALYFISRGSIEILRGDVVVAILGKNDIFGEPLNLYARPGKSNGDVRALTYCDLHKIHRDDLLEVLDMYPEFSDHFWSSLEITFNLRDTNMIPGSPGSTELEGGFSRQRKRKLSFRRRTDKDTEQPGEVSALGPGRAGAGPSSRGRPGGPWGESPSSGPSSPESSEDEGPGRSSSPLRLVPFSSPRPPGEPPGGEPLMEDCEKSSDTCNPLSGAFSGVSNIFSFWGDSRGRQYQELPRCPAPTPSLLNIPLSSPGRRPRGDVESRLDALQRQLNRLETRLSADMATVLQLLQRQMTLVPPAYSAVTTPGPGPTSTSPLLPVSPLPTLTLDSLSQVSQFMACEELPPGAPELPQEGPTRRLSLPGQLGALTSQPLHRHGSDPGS

Structure (SMILES)	hERG current change (%, negative = inhibition) at 1uM [%]
C=Cc1ccc(CN2CCCN(Cc3ccc(Cl)cc3)S2(=O)=O)cc1	17.4
COc1cccc(-n2c(CN3CCN(Cc4ccccc4)CC3)nc3ccc([N+](=O)[O-])cc3c2=O)c1	3.16
O=C(CCS(=O)(=O)c1ccc(Br)cc1)N1CCC2(CC1)OCCO2	2.24
COc1ccc(NC(=O)C2CC(=O)N(C(C)C)C2)cc1 (stereo not shown)	14.6
O=C(CSc1nc2ccccc2c(=O)n1CC1CCCO1)NCc1ccc2c(c1)OCO2 (stereo not shown)	9.71
Cc1ccc(-c2nc(C)sc2CC(=O)OCC(=O)Nc2cccc([N+](=O)[O-])c2)cc1	1.98
COC(=O)c1ccccc1SCc1csc(C)n1	14.6
CCCCOC(=O)CSC1=C(C#N)C(c2ccccc2OCC)C(C#N)C(=O)N1 (stereo not shown)	17.4
C/C(=N\N=C(N)N)c1ccc(Cl)cc1	-3.88
COc1ccc(COC(=O)C2=C(C)NC(=O)NC2c2cc(OC)ccc2OC)cc1 (stereo not shown)	12.4
CCOC(=O)c1c(=O)n(O)c2ccc(OC)cc2[n+]1[O-]	-2.03
Cc1ccccc1-n1nc2c(c1NC(=O)CC(C)C)CS(=O)C2 (stereo not shown)	6.92
COc1ccc(-n2c(SCC(=O)NCC3CCCO3)nc3c(c2=O)SCC3)cc1OC (stereo not shown)	13.5
C=C(C)CSc1nnc2n(N)c(=O)c3ccccc3n12	14
COc1ccc(/C=C/c2c(-c3ccc(OC)cc3)oc3ccc(-c4ccc(OC)cc4)cc23)cc1	-1.57
O=C(NCc1cccs1)c1ccc2c(c1)ncn2C1CCCC1	-5.32
O=S(=O)(NCCc1ccccc1)c1ccc(Br)cc1	1.72
CCn1cc(-c2ccnc3cc(C(=O)O)nn23)c(C)n1	8.83
COc1ccc(N(C(=O)c2snc(C(N)=O)c2N)C(C(=O)NC2CCCC2)c2cccs2)cc1OC (stereo not shown)	6.13
C=CCNC(=O)N1CCC(n2nccc2NC(=O)CCCc2ccccc2)CC1	-3.3
CC(=NCCCn1ccnc1)c1c(C)[nH]n(-c2ccc([N+](=O)[O-])cc2)c1=O	-17.8
O=C(Cc1ccc2c(c1)OCCO2)N/N=C/c1ccco1	-6.65
CCCCNC(=O)CN1C(=O)NC2(CCOc3ccccc32)C1=O (stereo not shown)	4.81
CCC(C(=O)NC1CCCC1)N(Cc1ccc2c(c1)OCO2)C(=O)c1snc(C(N)=O)c1N (stereo not shown)	1.7
Cc1cc(C(=O)CN2C(=O)NC3(CCCc4ccccc43)C2=O)c(C)n1Cc1ccccc1 (stereo not shown)	9.31
COC(=O)C1=C(c2ccccc2OCc2ccccc2)C[C@@H]2CC[C@H]1N2C(=O)NCc1cccc(F)c1	9.78
Cc1cc(C)c(NC(=O)CN2CCN(C)CC2)c(C)c1	7
O=C(CCS(=O)(=O)c1cccc2nsnc12)NCc1ccccc1Cl	23.3

Structure (SMILES)	hERG current change (%, negative = inhibition) at 1uM [%]
COCCCN(CC(=O)Nc1ccc(N2CCOCC2)cc1)S(=O)(=O)c1ccc(C)cc1	17.4
COC(=O)c1sc(NC(=O)C(C)c2ccccc2)nc1C (stereo not shown)	6.89
O=C(Nc1ccc(Br)cc1)C1CC(O)CN1C(=O)Oc1ccccc1 (stereo not shown)	13.4
COC1CCCCC1NS(=O)(=O)c1ccccc1 (stereo not shown)	12.8
CC(=O)COc1ccc2c(C)c(-c3ccccc3)c(=O)oc2c1	0.992
O=C(NCCCN1CCCC1)c1ccc(CS(=O)(=O)c2c(Cl)cccc2Cl)o1	15.6
CC(CN(C(N)=O)c1ccccc1O)C(=O)O (stereo not shown)	-1.95
CCCc1cc(=O)n2[nH]c(Cc3ccccc3)nc2n1	14
Cn1cc(SCC(=O)NCCc2ccccc2)c2ccccc21	-6.9
CC1(C)NC(=O)N(CC(O)CN(c2ccccc2)S(=O)(=O)c2ccccc2[N+](=O)[O-])C1=O (stereo not shown)	9.96
Cc1ccc(CSCC(=O)NCc2cccnc2)cc1	12.8
CCOC(=O)C1=C(C)NC(SC)=C(C#N)C1CC(C)C (stereo not shown)	2.73
CCCCC(=O)N=c1sc2cc(S(C)(=O)=O)ccc2n1C	3.1
CSCCC(N=C(NS(=O)(=O)c1ccc(C)cc1)c1ccccc1)C(=O)O (stereo not shown)	13.1
CC1SC(c2ccccc2)N(CC(O)c2ccc([N+](=O)[O-])cc2)C1=O (stereo not shown)	-40.7
CCCCOC1(c2ccccc2)NC(=S)NN=C1c1ccccc1 (stereo not shown)	17.8
O=C1c2ccccc2C(Nc2ccccc2)N1Cc1ccc2c(c1)OCO2 (stereo not shown)	7.92
CCN(Cc1cc2ccccc2[nH]c1=O)C(=O)C(C)C	6.86
CC(C)(CNC(=O)/C=C/c1ccc(F)cc1)CNC(=O)/C=C/c1ccc(F)cc1	-6.58
O=C(Cn1nnc2ccccc21)NCc1ccccc1	10.1
O=C(CSc1nnc(Nc2ccccc2F)s1)Nc1cccc(S(=O)(=O)N2CCCCC2)c1	-0.278
Cc1ccc(-c2cc(C(F)F)n3ncc(C(=O)N4CCCc5ccccc54)c3n2)cc1	3.74
CCN(c1ccccc1)S(=O)(=O)c1cc(NC(=O)CSc2n[nH]c(=O)[nH]c2=O)ccc1Cl	16.3
CC(=O)Nc1sc2c(c1C(c1ccccn1)N1CCCC1)CCCC2 (stereo not shown)	1.17
O=C(OCc1ccc([N+](=O)[O-])cc1)c1cc(S(=O)(=O)N2CCCCC2)ccc1N1CCOCC1	-77.9
COc1cc(/C=N/N=C2/SCC(=O)N2c2ccc(O)cc2)ccc1O	15.8
CN(c1ccc(C(=O)Nc2ccccc2C(=O)N2CCOCC2)cc1)S(C)(=O)=O	11.6
